Experimental data published in patent US20250268857A1 (priority 2020, published 2025).

Test system: Salmonella enterica (NBRC3313)
Format: cell-based
Settings: 7,500 ppm agent diluted as appropriate

zinc gluconate was tested, and the “Minimum Inhibitory Concentration” value was 400 ppm.
